Data taken from PubChem BioAssay (NCI).
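A five-concentration, 48-hour dose response in 96-well plates underlies each endpoint, interpolated linearly between surrounding concentrations. Here, GI50 denotes the concentration required for 50% inhibition of growth. TGI is the concentration that stops growth completely.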

Test system: NCI-H322M lung
Test: growth of human tumour cells (NCI), 48 h

Compound	GI50 [µM]	TGI [µM]
Cn1ccnc1C(=O)/C=C/c1ccc(NC(=O)Nc2ccccc2)cc1	17.4	60
CC(C)(C)Nc1nc2c(OCCc3ccccc3)cccn2c1-c1cccc(Oc2ccccc2)c1	9.99	> 100
